Patent publication US20160166634A1 (Novartis, published 2016)

T1: human APJ receptor (hAPJ) (human, UniProt P35414 1-380)
T1 sequence (looked up): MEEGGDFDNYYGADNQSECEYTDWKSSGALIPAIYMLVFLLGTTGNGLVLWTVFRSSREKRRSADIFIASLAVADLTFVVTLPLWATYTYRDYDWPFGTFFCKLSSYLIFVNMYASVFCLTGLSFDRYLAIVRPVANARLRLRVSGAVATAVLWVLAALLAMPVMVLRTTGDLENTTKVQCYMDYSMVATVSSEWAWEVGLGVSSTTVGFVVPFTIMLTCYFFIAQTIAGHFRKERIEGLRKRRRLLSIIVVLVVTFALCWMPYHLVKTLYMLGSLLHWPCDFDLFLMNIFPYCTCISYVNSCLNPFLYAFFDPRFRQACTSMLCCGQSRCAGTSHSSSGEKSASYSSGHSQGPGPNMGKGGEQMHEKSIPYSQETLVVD


target: T1, human APJ receptor (hAPJ); test: cell-based or functional assay

hAPJ Ca2+ Flux EC50 [nM]	Binder
13.6	Example 15 Fc-Apelin fusion (Fc fusion, disulfide between the two C* cysteines of the apelin part) [skipping human IgG1 Fc with changes]AGGGGSGGGGSGGGGSQRPRLCHKGPMC
8.4	Example 5 Fc-Apelin fusion (Fc fusion) [skipping human IgG1 Fc with changes]GGGGSGGGGSGGGGSQRPRLSHKGPMPF
7.9	Example 9 Fc-Apelin fusion (Fc fusion, disulfide between the two C* cysteines of the apelin part) [skipping human IgG1 Fc with changes]AGGGGSGGGGSGGGGSQRPRLCHKGPMCF
